# From the supplement of paper PMC10185492
# This is one part of the list. Values come from read counts of a selection and are noisy.
# System: SARS-CoV-2 3CLpro (nsp5)
# Assay: substrate phage enrichment score (protease-eluted vs HEPES control, +1 offset) (ratio); higher = better cleaved substrate
# Details: selection round: 3; protease elution time: 0.5 h
# Protocol: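 Random heptapeptide substrate phage display (M13 pIII fusion, heptapeptide between an N-terminal biotinylated AviTag GLNDIFEAQKIEWHE and pIII; phages immobilised on streptavidin) eluted by cleavage with 50 nM protease in 20 mM HEPES at 37 °C. Selected phages were NGS sequenced, and the enrichment score is (reads in protease sample + 1)/(reads in HEPES blank-selection control + 1).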
row,Substance,substrate phage enrichment score
1,SGVCMRK,> 22
2,LESPCQA,2.08
3,YDCILQS,> 31
4,QVREEQQ,0.467
5,PILPHVM,> 25
6,CYDMTRQ,> 23
7,TPIATPQ,5.5
8,CSAAAHH,1.35
9,KANPRLQ,> 36
10,QRTREKN,4.2
11,HTPQCKQ,> 23
12,GETRLRS,> 24
13,TRCQSEA,4.56
14,YPWDIVQ,> 21
15,NQAAHHH,1.76
16,PLCPMQS,> 34
17,ASQGANC,> 23
18,GCVNLQA,292
19,SSSHNMT,6.5
20,MGQTSGA,1.44
21,STTSTTA,> 34
22,QRTRGPT,0.792
23,GSAAHHH,1.32

row,Substance,substrate phage enrichment score
1,WQGPRLQ,10
2,AIGCTLQ,> 37
3,GAGVHLW,> 24
4,QSAAHHH,1.21
5,YRQPSSR,> 27
6,GHAMTLQ,> 23
7,TGSETHS,8.3
8,LNITESQ,1
9,SGHTTLQ,> 26
10,IGSCVMD,2.27
11,HYPFLQS,> 37
12,RVRVTLQ,> 230
13,GPTYAEA,11
14,SSSQRLT,> 32
15,HPAAHHH,0.674
16,THNNSVK,> 24
17,CRPVSAR,4.2
18,SHVQNTW,> 49
19,CSLQCAL,21
20,NLAAHHH,0.765
21,TDSTRVK,5
22,PRNEGVP,0.833
23,RAVQLQG,> 26

row,Substance,substrate phage enrichment score
1,PRVATPT,> 46
2,IPSDFMM,1.65
3,RPTPYAN,0.769
4,SQPLRQV,1.84
5,SSVAAHH,2.78
6,TWDGLLN,10.5
7,DRADWKH,1.22
8,SAAAQHH,1.06
9,AAAPHHH,1.42
10,TKCTGEC,4.5
11,PYNVRQT,> 21
12,AMESPSS,> 23
13,SCLNCRQ,> 23
14,NPALGTR,> 23
15,SWWQESS,> 25
16,ERNVNCS,30.2
17,CSVLQSH,> 155
18,RSPLHCY,10
19,ETEQNWT,2.14
20,VGPHIII,2.7
21,NTILQAD,> 30
22,DKRTTDW,> 26
23,AGLMCSP,0.72

row,Substance,substrate phage enrichment score
1,RAHVPTE,3.14
2,RQYFQGG,1.91
3,CAHTTLQ,18
4,KPILQSS,> 29
5,SQPKPKP,1.5
6,NTQVSRF,0.75
7,ELKSRQT,2.6
8,SAATHHH,0.622
9,VKTQASE,5.67
10,CEAAHHH,0.901
11,ICNSGNE,1.76
12,PMSKHWQ,10.5
13,QEFHTRA,> 24
14,AGNGMPW,0.238
15,AHREEIP,3
16,QNGTKTT,> 40
17,ICTMSAT,0.729
18,GKLQSAT,> 56
19,CVHMQSG,> 28
20,SNSCYEW,6.5
21,LNSSTPR,4.2
22,QPYFQGG,1.88
23,SRATMPG,> 30

row,Substance,substrate phage enrichment score
1,LSAAHHH,0.817
2,LGLVCRG,> 23
3,TVAAHHH,0.821
4,VLQGRET,> 42
5,LAEYRDR,12.5
6,EPAAHHH,0.375
7,SAAAHNH,1.41
8,KRDLNRL,3.33
9,VLLMHST,> 26
10,EWRCVLQ,154
11,YYRPDWD,> 25
12,AVKHRNR,6.14
13,CRSRRVS,0.0714
14,VSKTTLQ,> 29
15,PTNEGLM,6.17
16,LTGNYGR,1.92
17,ASAHHHH,1.06
18,SHPQRLE,2.87
19,CEAKNRS,2
20,LQGISRQ,4.75
21,AAAAHHH,1.33
22,KRGTTPC,1.5
23,RHLELNS,2.14

row,Substance,substrate phage enrichment score
1,KLETPCR,2.33
2,SNAAHHH,1.18
3,FSPQTSQ,> 37
4,DCRLNEC,> 30
5,AHEWREH,0.462
6,EKNTTLQ,220
7,SAAAHHK,1.77
8,LYLQGGS,1.54
9,TQAEDYR,10
10,SAAPHHH,0.667
11,VHGVKLQ,> 44
12,AHRHYVG,11
13,RYPTYSR,1.27
14,ELSANTH,> 36
15,SAWLQGD,> 22
16,CEDTRNS,> 22
17,VQNCRLI,1.09
18,NSLHPMR,> 22
19,DLNSPAA,0.556
20,MWAPQHR,5.8
21,LGAAHHH,0.917
22,AQLSEHR,> 54
23,NRIDAYG,4.17

row,Substance,substrate phage enrichment score
1,VQDLSLI,11
2,AVLLQSR,> 82
3,ANRQCVP,4.18
4,CGRTSSS,0.961
5,SHNVAPR,> 22
6,PTAHHHH,0.515
7,LFEWHSP,4.5
8,TESKCYP,> 42
9,PDAAHHH,1.3
10,CKSKSEN,2.59
11,ASQSNAR,1.33
12,RETELNS,> 22
13,RYSPSTV,0.846
14,VGAVRGT,2
15,DVTTTWQ,> 21
16,AHHHHHH,1.28
17,DHTVLQC,> 30
18,VCSGNRF,2.56
19,RSARLHC,5.5
20,APAHHHH,1.02
21,MRSTSLQ,> 27
22,TSRPCAG,4.25
23,QYAKDRE,2.7

row,Substance,substrate phage enrichment score
1,HGSQHNG,2.08
2,ELFAYPQ,> 38
3,NGVCMTH,> 33
4,AAGTGEC,9.33
5,EFHSQAT,9
6,QSSCGQG,3.38
7,SKISGCR,> 21
8,TNRALIT,2.33
9,STTAHHH,0.917
10,SERPLSG,1.2
11,QRSTCPK,1.56
12,RAAAHQH,1.19
13,TYEPTPY,3.33
14,PTTKADP,> 25
15,GVAAHHH,0.769
16,CAAAHHN,0.857
17,NAQESRL,0.769
18,TYHLTDQ,1.8
19,KNHTTKQ,> 24
20,CREPIYR,3.29
21,VTKLRLP,0.1
22,CPKGELT,4.33
23,QARLQAC,> 22
